Reference: PubChem BioAssay AID743279 (National Center for Advancing Translational Sciences (NCATS), 2014)
Screen size: about 360,000 compounds; about 17,000 (4.7%) were called active. Inconclusive results, whose numbers are uncertain, are shown with a selection of clear calls. No stated cut-off is given here; in the data, active means activity change below about -50%; inconclusive means mostly about -30% to -49%; inactive means weaker than that.

Experiment: qHTS for Inhibitors of Inflammasome Signaling: IL-1-beta AlphaLISA Primary Screen
Conditions: THP-1 LPS/ATP IL-1B secretion, 16 h; at 57.5 µM, active compounds read low
Method in brief: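 THP-1 cells pretreated 1 hr with compounds (up to 57.5 uM final), then stimulated with LPS (250 ng/mL final) plus ATP (1.25 mM final); secreted IL-1B measured by AlphaLISA after 16 hr, decreased signal indicating inhibition.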
On the % scale 0 is the no-effect control and ±100 the full control effect.

| SMILES | activity change |
| --- | --- |
| Cn1c(=O)n(C)c2cc([N+](=O)[O-])c(N3CCN(C(=O)c4ccccc4Cl)CC3)cc21 | inconclusive: -40.8% |
| Cc1cc(C)n(-c2ccc(C(=O)N3CCN(S(=O)(=O)c4ccc(Br)cc4Cl)CC3)cc2)n1 | inconclusive: -48.3% |
| Cc1nn2c(-c3ccccc3)ccnc2c1-c1ccccc1 | inconclusive: -33.2% |
| O=C(CCCN1C(=O)c2ccccc2C1=O)NCc1ccc(F)cc1 | inactive: 5.34% |
| O=C(CN1CCN(c2ccccn2)CC1)Nc1ccc2ccccc2c1 | inactive: 18.6% |
| O=c1[nH]c(CN(CCO)CCO)nc2c1C1(CCCCC1)Cc1ccccc1-2 | inconclusive: -43.4% |
| CCc1ccc2c(c1)C(c1ccc([N+](=O)[O-])cc1)=NNC(c1ccc(F)cc1)=N2 | active: -53.1% |
| Cc1ccc2cc(NC(=O)C3(C)CCN(C)C3)ccc2n1 (centres undefined) | inactive: 18.8% |
| CCc1ccccc1NC(=O)/C(C#N)=C/c1ccc(Sc2ccccc2)o1 | inconclusive: -34.4% |
| CCN(Cc1ccccc1)C(=O)C1CCN(c2ncnc3c2nc2n3CCCCC2)CC1 | inconclusive: -39.2% |
| Cc1ccc(S(=O)(=O)Nc2cccc3c2O[C@H](CN(C)C(=O)Nc2cccc4ccccc24)[C@H](C)CN([C@H](C)CO)C3=O)cc1 | inconclusive: -47.9% |
| CC(C)Cn1nc(C(=O)NCc2ccccc2CN2CCCC2)c2ccccc2c1=O | inconclusive: -40.7% |
| c1ccc2c(C(c3nnnn3-c3ccc4c(c3)OCCO4)N3CCCCC3)ccnc2c1 (centres undefined) | inconclusive: -30.6% |
| COc1ccc(NC(=O)Cc2c(Cl)cccc2Cl)cn1 | inconclusive: -35.3% |
| O=S(=O)(c1ccc(Br)cc1)N1CCN(c2cc(-c3ccccc3)nc3ncnn23)CC1 | inconclusive: -47.4% |
| CC(C)(C)n1cnc2cc(NC(=O)c3ccc(Cl)cc3)ccc21 | inconclusive: -37.6% |
| O=C(O)c1cc(Nc2cc(Cl)c3nonc3c2[N+](=O)[O-])ccc1O | inactive: -11.1% |
| CCC(C)(CCNC(=O)Cc1ccccc1)c1ccccc1OC (centres undefined) | inconclusive: -45.1% |
| COc1ccc(N2CCN(C(=O)CNC(=O)c3nn(-c4ccc(OC)cc4)c(=O)c4ccccc34)CC2)cc1 | inconclusive: -35.7% |
| O=C(Nc1cc(S(=O)(=O)N2CCOCC2)ccc1N1CCCCC1)c1ccccc1 | inconclusive: -43.7% |
| COCCNc1nc(-c2ccc(Cl)cc2C)c2sccc2n1 | inactive: -14.4% |

| SMILES | activity change |
| --- | --- |
| COc1ccc(NC(=O)c2cc3n(n2)C(C(F)(F)F)CC(c2ccco2)N3)cc1 (centres undefined) | inconclusive: -36.2% |
| COc1cccc(-n2cnnn2)c1 | inactive: 38.8% |
| Cc1ccc2c(c1)C(=O)C(=O)N2c1ccc(C(F)(F)F)cc1 | inactive: 14.7% |
| CCOc1ccccc1OCC(=O)Nc1cc(S(=O)(=O)N2CCCCC2)ccc1N1CCN(CC)CC1 | inactive: -26.8% |
| Cc1ccc(-c2nc(-c3ccc(Cl)cc3)sc2CC(=O)O)c(C)c1 | inactive: 23.6% |
| Cc1ccc(C(CNC(=O)C(=O)Nc2ccc3c(c2)OCCO3)N2CCN(C)CC2)cc1 (centres undefined) | inconclusive: -41.2% |
| CCN1C(=O)/C(=C/c2ccc(OCc3ccc(C(=O)O)cc3)c(Cl)c2)NC1=S | inactive: -10.5% |
| Cc1cc(SCC(=O)NN)c2cc(Br)ccc2n1 | active: -92.4% |
| N#C/C(=C/c1ccccc1OCc1ccc(F)cc1)c1ccc(C(=O)O)cc1 | inactive: 45.2% |
| Cc1cc(C=O)c(C)n1-c1ccc(N2CCOCC2)cc1 | inconclusive: -36.2% |
| CCCCN(CC)C(=O)/C=C/c1cccc([N+](=O)[O-])c1 | inconclusive: -39.1% |
| O=C(Nc1ccccc1)Nc1ccc2c(c1)CCC2 | inconclusive: -31.1% |
| CC1(C)CC(=O)C2=C(C1)OC1=C(C(=O)CC(C)(C)C1)C2c1ccc(O)cc1O | active: -104% |
| CCCN1CC=C2C(C#N)=C(N)C(C#N)(C#N)C(c3cc(OC)ccc3OC)C2C1 (centres undefined) | inconclusive: -36.5% |
| O=C(O)Cc1ccc(O)cc1 | inactive: -8.62% |
| Cc1cc(Cl)ccc1OCC(=O)Nc1cccnc1 | inconclusive: -38.4% |
| O=C(/C=C/c1ccc(Cl)c(Cl)c1)n1cccn1 | inconclusive: -44% |
| O=C(CSc1nnc(-c2ccccc2)n1Cc1ccco1)NCc1ccc2c(c1)OCO2 | inconclusive: -34.1% |
| CSc1nc(NCCN(C)C)c2sc3nc(-c4ccco4)c4c(c3c2n1)CCC4 | active: -101% |
| CC(C)(C)S(=O)N1Cc2cc(C(=O)N[C@@H]3CCN(Cc4ccccc4)C3)nc(-c3cccc(-c4cc5ccccc5o4)c3)c2[C@@H]1CCO (some centres undefined) | inconclusive: -44.3% |
| CCOC(=O)c1nc2ccccc2c(=O)[nH]1 | inactive: -15% |

| SMILES | activity change |
| --- | --- |
| Cc1cc2n(n1)C(c1sccc1C)Nc1ccccc1-2 (centres undefined) | inconclusive: -36% |
| CC(C)(C)c1csc(NC(=O)c2cccs2)n1 | inconclusive: -35.1% |
| CC1(C(=O)NS(=O)(=O)C2CC2)CCN(C(=O)CSc2ccccc2)C1 (centres undefined) | inactive: 13.5% |
| NC(=O)CSc1oc(-c2ccco2)nc1S(=O)(=O)c1ccc(Br)cc1 | inconclusive: -32.2% |
| CCCCCCCN1N=C(C)C(C(=O)c2ccccc2)C1=O (centres undefined) | inactive: 21% |
| Cc1ccc(C(=C2C3C=CC2C2C(=O)NC(=O)C32)c2ccc(C)cc2)cc1 (centres undefined) | inconclusive: -36.4% |
| Cc1ccsc1CN(C)C(=O)CN1C(=O)NC(c2ccccc2)(c2ccccc2)C1=O | inconclusive: -34.5% |
| O=C(NN=Cc1ccc(O)cc1O)c1ccccc1NS(=O)(=O)c1cccs1 | inactive: 196% |
| O=C(Nc1ccc(C(=O)c2ccccc2)cc1)c1ccccc1 | inconclusive: -34.9% |
| COc1ccc(S(=O)(=O)N2CCCCCC2)cc1C(=O)N1CCN(c2ccc(F)cc2)CC1 | inconclusive: -43.8% |
| CC(C)C[C@@H](CN1CCCC1CN1C(=S)NC[C@@H]1Cc1ccc(O)cc1)N1C[C@H](Cc2ccc(O)cc2)N(CC2CCCCC2)C1=S (some centres undefined) | active: -86.6% |
| CC1=C/C(=N\OS(=O)(=O)c2ccccc2)C(C)=CC1=O | active: -98.3% |
| O=C(Nc1ccc(C(F)(F)F)cc1[N+](=O)[O-])O[C@H]1[C@H](Cc2ccccc2)NS(=O)(=O)[C@H]2C[C@@H]3C=C[C@]12O3 | active: -50.3% |
| O=C(Nc1cc(Sc2ccccn2)cc([N+](=O)[O-])c1)c1ccc([N+](=O)[O-])cc1 | active: -75.7% |
| O=C(CN1CCN(C(C(=O)Nc2ccc(Cl)cc2C(F)(F)F)c2ccccc2)CC1)NC1CC1 (centres undefined) | inconclusive: -41% |
| CN(c1ccccc1)S(=O)(=O)c1ccc(Cl)c(C(=O)Nc2nc3ccccc3[nH]2)c1 | inconclusive: -32.9% |
| CCCCC[C@@H](C)N1C[C@H](COCc2ccccc2)Oc2cc(N3CC[C@H](N(C)C)C3)ccc2S1(=O)=O | active: -82.3% |
| C[C@@H]1CN([C@@H](C)CO)C(=O)c2cc(C#Cc3cccc(F)c3)cnc2O[C@@H]1CN(C)CC1CCOCC1 | inconclusive: -34.8% |
| COc1ccc(C(=O)N/C(=C\c2cccc3ccccc23)C(=O)N2CCN(C)CC2)cc1 | inconclusive: -36.9% |
| O=C1CC(c2cccc([N+](=O)[O-])c2)c2ccc3ccccc3c2N1 (centres undefined) | inactive: -4.35% |
| C=Cc1ccc(Cn2c(C)c(C(=O)NCc3ccc4c(c3)OCO4)sc2=O)cc1 | inconclusive: -49.4% |

| SMILES | activity change |
| --- | --- |
| c1ccc(-c2ccc(-c3cnc4n3CCCCC4)cc2)cc1 | inconclusive: -41.7% |
| COC(=O)CCN1CCc2cc(N=Nc3ccc([N+](=O)[O-])cc3)ccc21 | inactive: -10% |
| Cc1ccccc1OCCC(=O)OCC(=O)N1CCN(S(=O)(=O)c2ccc(Cl)cc2)CC1 | inactive: 12.2% |
| COc1ccccc1Cc1c(-c2ccc(C#N)cc2)nc2ccc(C)cn12 | inconclusive: -32.2% |
| Cc1ccc(Cl)cc1-c1cc(C(=O)N2CCN(c3ccncc3)CC2)[nH]n1 | inconclusive: -38.8% |
| CCc1nn(C(C)C(=O)NCCN2CCN(c3cccc(C)c3C)CC2)c(=O)c2cc3occc3n12 (centres undefined) | inconclusive: -31.5% |
| CCCCCCn1c(COc2ccccc2F)nnc1SCC(=O)N1c2ccccc2NC(=O)C1(C)C | active: -56.7% |
| Cc1ccc(CSCc2nc3ccccc3[nH]2)cc1 | active: -98.5% |
| CSc1ccccc1OCc1cc(C(=O)NCc2csc(C(C)C)n2)no1 | inactive: -21% |
| COc1ccc(CCC2CCNCC2)cc1 | inactive: -8.15% |
| O=C(NC(=S)N1CCCCC1c1cccnc1)c1ccccc1 (centres undefined) | inconclusive: -30.8% |
| CC(C)CC1NC(=O)N(CC(=O)Nc2cc([N+](=O)[O-])ccc2F)C1=O (centres undefined) | inconclusive: -44.2% |
| COc1cccc(CN2CCCC(C(=O)c3ccc4c(c3)OCO4)C2)c1OC (centres undefined) | inconclusive: -32.3% |
| Cc1ccccc1C(=O)NC(=S)Nc1ccc(S(=O)(=O)N2CCOCC2)cc1 | inconclusive: -33.7% |
| COc1ccc(-c2cc(N3CCCC3)n3ncnc3n2)cc1 | inconclusive: -32.9% |
| CCOC(=O)N1CCN(C(=O)c2ccc(N3CC4CC(C3)c3cccc(=O)n3C4)c(NC(=O)c3ccc(F)cc3)c2)CC1 (centres undefined) | inconclusive: -31% |
| Cc1occc1-c1nnc(SCC(=O)c2cc3ccccc3oc2=O)o1 | inactive: 15.7% |
| Cc1ccc(S(=O)(=O)NC(=O)C2(C)CCN2C(=O)Cc2cccs2)nc1 (centres undefined) | inactive: 3.59% |
| O=C(CCNC(=O)c1ccccc1Cl)Nc1nnc(C2CC2)s1 | inactive: 21.6% |
| Cc1ccccc1NC(=O)/C(C#N)=C/c1ccsc1 | inactive: -9.32% |
| Cc1[nH]c(-c2ccc(F)cc2)cc1C(=O)N1CCN(c2ccccc2)CC1 | active: -55.7% |
